Data reported in PubChem BioAssay AID1347165 (National Center for Advancing Translational Sciences (NCATS), 2019).
The campaign covered roughly 220,000 compounds. About 5,700 (2.6%) were called active. This list was built around the results that the source calls inconclusive (neither active nor inactive); the mix of calls is not that of the screen. Calls follow the shape of the dose curve; as a rule, active = well fitted inhibition curve with a large enough effect; inconclusive = small, poorly fitted or top-dose-only effect; inactive = no such curve, though single readings can be large or run the other way. Where the call is inconclusive, the potency comes from a doubtful curve fit.

target: Lysine-specific demethylase 5B (Homo sapiens) (UniProt Q9UGL1); assay: Primary screen for KDM5B Histone Demethylases FDH-coupled qHTS; conditions: FDH-coupled NADH fluorescence (FDH is formaldehyde dehydrogenase); series mostly up to 57.7 µM; also: nearly all actives have a fitted effect of over 70% in size
Outline: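 KDM5BΔAP (200 nM final) in 50 mM HEPES pH 7.5, 0.01% Tween-20 was preincubated 10 min at RT with compound over a concentration range. Substrate mix (H3K4me3 12.5 µM, α-KG 25 µM, Fe²⁺, ascorbate, NAD⁺, FDH) was added, and NADH fluorescence change over 30 min gave dose-response curves.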
Potency is read from the fitted curve at half-maximal effect; tags tell the direction and shape of the fitted curve.

UniProt Q9UGL1, sequence (Q9UGL1 whole entry, looked up): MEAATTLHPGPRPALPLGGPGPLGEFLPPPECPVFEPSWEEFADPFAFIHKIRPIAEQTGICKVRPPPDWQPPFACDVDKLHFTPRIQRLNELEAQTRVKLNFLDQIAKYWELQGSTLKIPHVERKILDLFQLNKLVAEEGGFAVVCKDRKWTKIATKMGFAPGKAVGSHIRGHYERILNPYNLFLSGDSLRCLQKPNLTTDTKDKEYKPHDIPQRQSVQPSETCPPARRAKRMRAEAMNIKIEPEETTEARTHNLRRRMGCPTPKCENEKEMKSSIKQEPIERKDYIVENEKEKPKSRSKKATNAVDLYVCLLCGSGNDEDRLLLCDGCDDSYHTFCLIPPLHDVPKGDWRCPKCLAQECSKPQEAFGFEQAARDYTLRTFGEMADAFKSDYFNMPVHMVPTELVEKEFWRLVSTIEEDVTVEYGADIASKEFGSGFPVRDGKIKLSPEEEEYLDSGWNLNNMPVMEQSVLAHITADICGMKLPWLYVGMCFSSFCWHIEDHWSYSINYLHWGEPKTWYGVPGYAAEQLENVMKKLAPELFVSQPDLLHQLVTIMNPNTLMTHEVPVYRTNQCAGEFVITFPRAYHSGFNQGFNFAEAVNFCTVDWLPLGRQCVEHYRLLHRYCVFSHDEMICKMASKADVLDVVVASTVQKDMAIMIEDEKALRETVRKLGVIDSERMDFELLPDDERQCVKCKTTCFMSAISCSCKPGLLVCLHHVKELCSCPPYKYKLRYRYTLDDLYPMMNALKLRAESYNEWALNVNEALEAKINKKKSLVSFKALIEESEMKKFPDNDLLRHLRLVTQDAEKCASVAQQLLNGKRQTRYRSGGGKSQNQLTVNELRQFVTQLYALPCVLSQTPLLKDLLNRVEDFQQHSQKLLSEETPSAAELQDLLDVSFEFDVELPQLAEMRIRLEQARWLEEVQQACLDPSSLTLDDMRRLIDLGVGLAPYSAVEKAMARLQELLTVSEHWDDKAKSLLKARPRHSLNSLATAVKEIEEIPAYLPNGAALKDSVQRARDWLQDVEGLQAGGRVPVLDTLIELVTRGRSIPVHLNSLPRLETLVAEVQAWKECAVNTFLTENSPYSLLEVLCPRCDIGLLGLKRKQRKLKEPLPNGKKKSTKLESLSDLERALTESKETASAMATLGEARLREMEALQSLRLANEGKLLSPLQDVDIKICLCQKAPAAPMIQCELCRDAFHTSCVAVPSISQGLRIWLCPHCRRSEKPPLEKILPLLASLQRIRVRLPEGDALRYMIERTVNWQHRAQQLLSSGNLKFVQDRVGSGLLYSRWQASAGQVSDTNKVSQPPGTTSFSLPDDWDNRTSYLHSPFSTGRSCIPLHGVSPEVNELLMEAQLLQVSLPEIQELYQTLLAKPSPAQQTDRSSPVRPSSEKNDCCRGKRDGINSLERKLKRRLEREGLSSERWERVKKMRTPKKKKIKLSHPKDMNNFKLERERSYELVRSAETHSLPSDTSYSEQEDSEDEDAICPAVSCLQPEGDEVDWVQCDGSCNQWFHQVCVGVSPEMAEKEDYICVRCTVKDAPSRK

**Q.** With O=C(NC1CCN(c2cc(-c3cccs3)[nH]n2)CC1)c1ccccc1Cl as the molecule, how does the Potency read?
**A.** inconclusive: 35.5 µM [inhibitor, partial curve, poor fit]

**Q.** Which Potency does the source give for Nc1nccnc1C(=O)Nc1ccc2ccccc2n1 here?
**A.** inconclusive: 6.31 µM [inhibitor, full curve, poor fit]

**Q.** Which Potency does the source give for C=CCn1c(SCc2nc3ccccc3o2)nnc1-c1ccc(Cl)cc1 here?
**A.** inactive

**Q.** How did the Potency turn out when Cn1c(-c2ccccc2)cc2ccccc21 was run?
**A.** inconclusive: 28.2 µM [inhibitor, partial curve, poor fit]

**Q.** For CC1(C)[C@H](Cc2cc(CN3CCCCC3)on2)C[C@@H]1NCc1ccccn1, which Potency is on record?
**A.** inconclusive: 31.6 µM [inhibitor, partial curve, poor fit]

**Q.** How did the Potency turn out when Cc1c(C)n(O)c2ccc3nonc3c12 was run?
**A.** inconclusive: 12.6 µM [inhibitor, partial curve, poor fit]

**Q.** How did the Potency turn out when COc1ccc(-c2ccnc3nc(-c4cccs4)nn23)cc1 was run?
**A.** inconclusive: 3.16 µM [inhibitor, full curve, poor fit]

**Q.** How did the Potency turn out when Cc1ccc(CNC(=O)c2ccc3c(c2)N(C)C2CCCN2C3=O)cc1C (stereo unspecified) was run?
**A.** inconclusive: 22.4 µM [inhibitor, partial curve, poor fit]

**Q.** For Cc1ccc2c(c1C)NC(C)CC2C (stereo unspecified), which Potency is on record?
**A.** inconclusive: 39.8 µM [inhibitor, single point]

**Q.** How did the Potency turn out when Cc1cc2c(cc3c(SCC(=O)Nc4ccc(Cl)cc4F)nncn32)o1 was run?
**A.** inconclusive: 28.2 µM [inhibitor, partial curve, poor fit]

**Q.** How did the Potency turn out when CCOC(=O)c1cccc(NC(=O)NC(C)c2c(-n3cccc3)sc3c2CCN(C)C3)c1 (stereo unspecified) was run?
**A.** inconclusive: 12.6 µM [inhibitor, partial curve, poor fit]

**Q.** With O=C(Cc1ccccc1)Nc1ccnn1C1CCN(Cc2ccc3cccc(F)c3n2)CC1 as the molecule, how does the Potency read?
**A.** inconclusive: 28.2 µM [inhibitor, partial curve, poor fit]

**Q.** For CN1CCN([C@@H]2[C@H](O)[C@H](CO)O[C@@H]2CNC(=O)c2ccccc2)CC1, which Potency is on record?
**A.** inconclusive: 56.2 µM [inhibitor, single point]

**Q.** Which Potency does the source give for Cc1c(O)ccc2c(CN(C)CC(=O)Nc3cccc4ccccc34)cc(=O)oc12 here?
**A.** inconclusive: 20 µM [inhibitor, partial curve, poor fit]

**Q.** Which Potency does the source give for Cc1ccc(C)c(Oc2ccc(CNC(=O)c3nccnc3N)cn2)c1 here?
**A.** inconclusive: 25.1 µM [inhibitor, partial curve, poor fit]

**Q.** With CCn1ncc(CN2CCCC23CCN(c2cc(C)nc4ccccc24)CC3)c1C as the molecule, how does the Potency read?
**A.** inconclusive: 12.6 µM [inhibitor, partial curve, poor fit]
